Experimental data from PMC4336329 (PLoS ONE, 2015).
Screen size: about 310,000 compounds; about 14,000 (4.5%) showed an effect of 50% or more. The effect is printed as a negative number. The list shows a part of the results. Where a SMILES comes first, the peptide text is derived from it. The star is where a group is joined. Boc = CC(C)(C)OC(=O)*

What follows are compounds tested against human ether-à-go-go-related gene (hERG) potassium channel (human, UniProt Q12809) (assay: primary screen, population patch clamp on CHO cells stably expressing hERG).
Chain of human ether-à-go-go-related gene (hERG) potassium channel (Q12809 whole entry, looked up): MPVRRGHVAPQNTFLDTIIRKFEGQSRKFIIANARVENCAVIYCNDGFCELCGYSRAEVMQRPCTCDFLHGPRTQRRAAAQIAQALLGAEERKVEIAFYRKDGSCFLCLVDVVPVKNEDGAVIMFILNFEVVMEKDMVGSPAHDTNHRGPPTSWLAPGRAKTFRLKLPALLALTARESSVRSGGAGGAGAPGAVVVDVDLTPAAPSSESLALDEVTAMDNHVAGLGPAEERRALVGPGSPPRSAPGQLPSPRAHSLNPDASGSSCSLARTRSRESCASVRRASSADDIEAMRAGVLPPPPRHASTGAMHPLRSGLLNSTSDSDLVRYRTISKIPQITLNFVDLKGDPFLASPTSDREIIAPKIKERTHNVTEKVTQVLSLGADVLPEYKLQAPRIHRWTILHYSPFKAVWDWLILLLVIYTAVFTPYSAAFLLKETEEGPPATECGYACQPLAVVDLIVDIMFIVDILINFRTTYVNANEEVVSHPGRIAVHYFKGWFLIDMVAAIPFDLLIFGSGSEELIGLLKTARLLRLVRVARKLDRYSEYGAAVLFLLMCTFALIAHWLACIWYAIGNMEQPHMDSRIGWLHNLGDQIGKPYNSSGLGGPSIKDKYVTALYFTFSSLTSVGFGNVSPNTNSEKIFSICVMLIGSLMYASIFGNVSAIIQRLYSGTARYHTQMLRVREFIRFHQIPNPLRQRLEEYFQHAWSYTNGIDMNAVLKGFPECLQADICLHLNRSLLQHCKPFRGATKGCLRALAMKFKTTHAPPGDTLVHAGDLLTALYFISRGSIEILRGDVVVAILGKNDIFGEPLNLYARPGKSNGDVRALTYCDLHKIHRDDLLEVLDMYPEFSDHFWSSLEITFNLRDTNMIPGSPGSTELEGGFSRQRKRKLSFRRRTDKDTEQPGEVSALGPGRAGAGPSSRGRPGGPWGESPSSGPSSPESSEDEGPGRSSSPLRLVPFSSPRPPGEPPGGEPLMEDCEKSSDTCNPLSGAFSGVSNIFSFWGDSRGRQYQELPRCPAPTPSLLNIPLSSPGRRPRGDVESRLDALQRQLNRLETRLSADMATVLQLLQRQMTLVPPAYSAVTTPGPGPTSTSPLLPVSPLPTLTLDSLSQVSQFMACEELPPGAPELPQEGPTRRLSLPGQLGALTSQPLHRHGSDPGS
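Also: peak tail current of the secondary pulse compared with the same well before compound.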

Row | Structure (SMILES) | hERG current change (%, negative = inhibition) at 10uM [%]
1 | O=C(c1cc2sccc2n1Cc1ccccc1)N1CCCc2ccccc21 | 1.8
2 | O=S(=O)(Nc1ccccn1)c1ccc(-n2cccn2)cc1 | 21.3
3 | Cc1cc(=O)[nH]c(SCc2nc3ccccc3c(=O)n2-c2ccccc2C)n1 | 24.9
4 | CSCCC(NC(=O)c1ccccc1)C(=O)N1CCN(C(c2ccccc2)c2ccccc2)CC1 (centres unmarked) | 4.36
5 | O=C(N[C@@H](c1ccccc1)[C@@H]1C[C@H]1C(=O)O)OCc1ccccc1 | 15.1
6 | CC(=O)NC1(C(F)(F)F)C(=O)Nc2c1c(=O)[nH]c(=O)n2-c1ccccc1 (centres unmarked) | 11.1
7 | CCOC(=O)[C@H]1[C@H]2COc3ccc(OC)cc3[C@H]2N2C(=O)CNC(=O)[C@@]12C | 1.75
8 | CCn1c(CSCc2ccc(Cl)cc2)nnc1SCC(=O)Nc1cccc(C(=O)O)c1 | -10.2
9 | N=C(N=C(N)N)N1CCc2ccccc21 | 17.4
10 | O=C(O)c1nccnc1C(=O)Nc1ccc(S(=O)(=O)N2CCOCC2)cc1 | 10.7
11 | C=CCn1c(C)c(C(C)=O)cc(NC(=O)c2ccccc2)c1=O | -11
12 | O=C(Nc1ccc(C(=O)NCc2ccc(F)cc2)cc1)C1=CSCCO1 | 4.17
13 | Cc1cccc(C(=O)N2CCc3cc(-c4nc(NC(=O)Cn5nnc6ccccc6c5=O)sc4C)ccc32)c1 | 10.3
14 | CCc1nnc(N/N=C/c2cccs2)n1N.Cl | 3.35
15 | CC1=NN(C(N)=S)C(=O)C1N=Nc1cccc(Cl)c1 (centres unmarked) | 17.2
16 | O=C(NC(=S)NC(CO)c1ccccc1)c1ccc(F)cc1 (centres unmarked) | 0.0916
17 | Cc1ccc(S(=O)(=O)N2CCCC2C(=O)OCc2ccccc2)cc1 (centres unmarked) | -12.8
18 | Cc1cc(NC(=O)CSc2nnc3ccccn23)no1 | -3.69
19 | Cn1c(C(=O)N[C@@H](C(=O)O)c2ccccc2)cc2cc(F)ccc21 | 25.1
20 | CCC(C)(C)n1nnnc1C(C(C)C)N1CCN(C)CC1.Cl (centres unmarked) | 6.63
21 | CCC(=O)c1ccc(OCC(=O)NCCc2ccccn2)cc1 | 11
22 | N#Cc1cc(Cl)c(N2CCOCC2)cc1C#N | -9.59

Row | Structure (SMILES) | hERG current change (%, negative = inhibition) at 10uM [%]
23 | Cc1ccc(N2CCN(C(=O)C3CCCN(c4ncnc5c4nc4n5CCCCC4)C3)CC2)c(C)c1 (centres unmarked) | -7.35
24 | Cc1[nH]c2ccc(C(=O)N3CCN(c4ccccn4)CC3)cc2c1C | -2.92
25 | Cc1ccc(NC(=S)N(CCN2CCCCC2)Cc2ccco2)cc1Cl | -51.1
26 | O=C1CC(c2cccc([N+](=O)[O-])c2)c2c(ccc3ccccc23)N1 (centres unmarked) | 10.3
27 | O=C(Nc1ccc(Cl)cc1Cl)C1=Cc2ccccc2OC1 | 5.71
28 | COc1ccc(CNC(=O)Nc2ccc(OC)cc2)cc1 | 10.9
29 | COc1cc(C(=O)NCCCc2nc3ccccc3n2Cc2cc(C)ccc2C)cc(OC)c1OC | -33.6
30 | CCCCn1c(=NC(=O)c2ccco2)c(C(=O)OCC)cc2c(=O)n3ccccc3nc21 | -71.7
31 | C=CCSC1=NC(=O)/C(=C/c2cccs2)S1 | -16.5
32 | Cc1ccc(OCCNS(=O)(=O)c2ccc(N3CCCC3=O)cc2)cc1C | 0.366
33 | CC(C)(C)OC(=O)NC(Cc1ccccc1)C(=O)N1CCCC1C(=O)O (stereo not drawn) (Boc-Phe-Pro-OH; configuration not given here) | 22.8
34 | O=C(NCCc1nc(-c2ccccc2)cs1)c1ccc(Br)cc1 | -7.36
35 | O=C(CNC(=O)c1cccs1)N/N=C/c1ccccc1[N+](=O)[O-] | -2.78
36 | Cc1cc(C)cc(NCc2ccncc2)c1 | -11.1
37 | COc1ccc(CCNC(=O)[C@@H](NC(N)=O)C(C)C)cc1 | 27.1
38 | CCN1C(=O)C(=Cc2cc(C)n(C3CC3)c2C)C(=O)N(CC)C1=S | 7.68
39 | COc1ccc(CNC(=O)COc2ccccc2C(=O)c2cnn(-c3ccccc3)c2)cc1OC | -41
40 | CCc1ccc(NC(=O)Nc2cc(C(=O)NCC3CCCO3)ccc2N2CC3CC(C2)c2cccc(=O)n2C3)cc1 (centres unmarked) | -17.6
41 | COc1ccc(C(=O)N2CCN(c3ccccn3)CC2)cc1 | 3.55
42 | CCCNC(=O)c1noc2c1CCc1cc(OC)ccc1-2 | -2.24
43 | CCCCN(C(=O)c1cc2ccccc2o1)c1c(N)n(CCC)c(=O)[nH]c1=O | -5.27
44 | Cc1cc(N2CCN(C(=O)c3ccco3)CC2)nc(-c2ccccc2)n1 | -65.4

Row | Structure (SMILES) | hERG current change (%, negative = inhibition) at 10uM [%]
45 | COc1cccc(C2=CC(c3cccc(OC)c3OC)n3nnnc3N2)c1 (centres unmarked) | -0.13
46 | CC(CCc1ccccc1)NC(=O)c1nnc(Cc2ccc(F)cc2)o1 (centres unmarked) | -17.8
47 | Nc1nnc(SCc2ccc(F)cc2)s1 | -6.14
48 | O=C(CN1CCN(CCO)CC1)Nc1ccc(Cl)cc1C(=O)c1ccccc1 | -72.8
49 | Cc1[nH]c2ccccc2c1C(=O)CN1C(=O)NC(C)(c2ccc(Cl)cc2Cl)C1=O (centres unmarked) | 4.54
50 | CN(C)S(=O)(=O)c1ccc2c(c1)C(=NO)c1cc(S(=O)(=O)N(C)C)ccc1-2 | 14.7
51 | COc1ccccc1Oc1ccc(N/C=C2/CCCC2=O)cc1 | -3.91
52 | CCN1C(=O)CC(C(=O)Nc2ccc(F)cc2)SC1=Nc1ccc2c(c1)OCO2 (centres unmarked) | -13.5
53 | Cc1ccc(-c2nc(CS(=O)CC(=O)NCCCN3CC(C)CC(C)C3)c(C)o2)cc1 (centres unmarked) | -19.9
54 | CSc1nc(C)c2c(n1)N(c1ccc(C(C)C)cc1)CC2 | 15.3
55 | CCOC(=O)CN1C(=O)C2(C(C#N)=C(N)Oc3ccccc32)C(C(=O)OC)=C1C (centres unmarked) | 10.1
56 | CSc1ncccc1C(=O)NCC12CC3CC(CC(C3)C1)C2 | 0.585
57 | COCc1cccc(NC(=O)CCc2ccccc2)c1 | 18.1
58 | Cc1cc(Cl)ccc1OCC(=O)NNC(=O)CCOc1ccccc1 | -6.26
59 | CCOc1nc(NCCc2ccc(OC)c(OC)c2)nc(NC(C)(C)CO)n1 | 1.6
60 | CC(C)(C)N(Cc1ccccc1)C(=O)COC(=O)c1ccc([N+](=O)[O-])o1 | 8.38
61 | O=C(Nc1ncccc1O)c1ccc(Oc2ccccc2)cc1 | -1.73
62 | COc1cccc(CNC(=O)c2ccc3nc[nH]c3c2)c1 | 16.2
63 | COc1ccc(N2C(=O)N3[C@H](c4ccc(Cl)cc4)[C@@H]4C(=O)N(C5CCCCC5)C(=O)[C@@H]4[C@]3(C)C2=O)cc1 | -1.17
64 | Cc1ccc(C(=O)N2CCN(C3CCCCC3)CC2)s1 | -36.7
65 | Cc1ccc(C)c(NC(=S)/C(=C(\[O-])c2ccc(OC(F)F)cc2)[n+]2ccccc2)c1 | 21.1
66 | O=[N+]([O-])c1ccc(Sc2cc[n+]([O-])c3ccccc23)c([N+](=O)[O-])c1 | -65.3

Row | Structure (SMILES) | hERG current change (%, negative = inhibition) at 10uM [%]
67 | C=CCOc1ccccc1C(=O)/C=C1/C(=O)Nc2ccccc21 | 11.7
68 | Cc1cccc(Nc2nnc(SC/C(O)=C(\C#N)c3nc4ccccc4[nH]3)s2)c1C | 0.65
69 | Cc1ccc(C)c(C(=O)COC(=O)c2cc(Cl)nc3ccccc23)c1 | 26.4
70 | CCOc1ccc(S(=O)(=O)N/N=C2/CC(c3ccccc3)Oc3ccccc32)cc1 (centres unmarked) | 2.42
71 | COc1ccc(NC(=O)c2cc(-c3ccccc3Cl)on2)cc1 | 12
72 | CC1CCCCC1NC(=O)C(=O)NCC1CCCO1 (centres unmarked) | 4.52
73 | O=C(Nc1ccccc1C(=O)N1CCCCC1)c1cccc(S(=O)(=O)N2CCOCC2)c1 | -19.2
74 | COc1ccccc1OCC(=O)NCc1nc(-c2ccccc2)no1 | -5.67
75 | Cc1cccc(N2CCC(N3CCN(C4CCCCC4)C(CCO)C3)CC2)c1C (centres unmarked) | -42.7
76 | CCN(CC)S(=O)(=O)c1ccc(NC(=O)COc2nc3ccccc3nc2N2CCOCC2)cc1 | 2.13
77 | Cc1occc1-c1nnc(SCC(=O)NC(C)(C)C)n1CC(C)C | 13
78 | Cc1cc(NC(=O)c2ccccc2NS(=O)(=O)c2c(C)c(C)cc(C)c2C)no1 | 4.51
79 | COc1ccc(OC)c(NC(=O)NNC(=O)COc2ccc([N+](=O)[O-])cc2)c1 | 9.31
80 | COc1cc2c(cc1OC)C(c1ccc3c(c1)OCO3)CC(=O)N2 (centres unmarked) | -28.4
81 | Cc1cccc(NC(=O)/C(C#N)=C/c2ccc(F)cc2)n1 | 30
82 | O=C(CCS(=O)(=O)c1ccc(Br)cc1)NCCc1ccccc1 | 13.5
83 | O=C(NNc1ncccc1-n1cccc1)c1ccc(Cl)cc1 | -15.4
84 | Cc1nnc(NC(=O)Nc2cccc(Cl)c2)s1 | -12.6
85 | Cc1ccc(Cl)cc1NC(=S)N1CCC(c2ccccc2)C1 (centres unmarked) | -3.76
86 | N#Cc1ccc(CN2CCN(c3ccc(S(=O)(=O)N4CCCC4)cn3)CC2)cc1 | -5.28
